# The list shows a part of the results. Repeats are few or missing, and single values can be far off.
# Tested on: COLO829
# Assay: cell count relative to DMSO control; melanoma cells; higher = more viable cells
# Details: library dose: low library concentration; 72 h
# 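Also: cell number obtained by counting DAPI-stained nuclei in high-throughput microscope images with image analysis software, screen run in 1,536-well plates.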
row,Compound,cell count [%]
1,"CCCCCCCCc1ccc(CCC(N)(CO)CO)cc1 [fingolimod] + COc1cc(Nc2ncc(F)c(Nc3ccc4c(n3)NC(=O)C(C)(C)O4)n2)cc(OC)c1OC [Tamatinib] (first compound 2 µM, partner dose 0.4 µM)",82.5
2,"CC(C)(C)c1cnc(CSc2cnc(NC(=O)C3CCNCC3)s2)o1 + O=C(Nc1cccc(Cl)c1)Nc1ncc(CCNc2ncnc3ccsc23)s1 [SNS314] (first compound 0.01 µM, partner dose 0.0008 µM)",110
3,"Cc1ccc(NC(=O)c2cccc(N(C)C)c2)cc1NC(=O)c1ccc(O)cc1 + COc1cc2c(Oc3ccc4[nH]c(C)cc4c3F)ncnc2cc1OCCCN1CCCC1 [cediranib] (first compound 2 µM, partner dose 0.4 µM)",97.4
4,"NC(=O)c1ccc(N(C(N)=O)c2c(F)cccc2F)nc1-c1ccc(F)cc1F + C[C@@H]1CCN(C(=O)CC#N)C[C@@H]1N(C)c1ncnc2[nH]ccc12 [CP690550] (first compound 0.4 µM, partner dose 1 µM)",74.5
5,"NC(=O)c1ccc(N(C(N)=O)c2c(F)cccc2F)nc1-c1ccc(F)cc1F + CC(C)(C)c1cnc(CSc2cnc(NC(=O)C3CCNCC3)s2)o1 [SNS-032] (first compound 0.4 µM, partner dose 0.01 µM)",111
6,"CCCCCCCCc1ccc(CCC(N)(CO)CO)cc1 [fingolimod] + CC1(C)NC(=O)N(c2ccc([N+](=O)[O-])c(C(F)(F)F)c2)C1=O [nilutamide] (first compound 2 µM, partner dose 1 µM)",109
7,"Cc1ccc(NC(=O)c2cccc(N(C)C)c2)cc1NC(=O)c1ccc(O)cc1 + CO[C@@H]1[C@H](N(C)C(=O)c2ccccc2)C[C@H]2O[C@]1(C)n1c3ccccc3c3c4c(c5c6ccccc6n2c5c31)C(=O)NC4 [Midostaurin] (first compound 2 µM, partner dose 0.08 µM)",86.3
8,"CCCCCCCCc1ccc(CCC(N)(CO)CO)cc1 [fingolimod] + Cc1cc(N2CCOCC2)cc2[nH]c(-c3c(NC[C@@H](O)c4cccc(Cl)c4)cc[nH]c3=O)nc12 [BMS536924] (first compound 2 µM, partner dose 0.2 µM)",107
9,"CCCCCCCCc1ccc(CCC(N)(CO)CO)cc1 [fingolimod] + O=C(O)c1ccc(-c2c[nH]c3ncc(-c4ccccc4)cc23)cc1C1CCCC1 [GSK650394] (first compound 2 µM, partner dose 0.16 µM)",108
10,"Cc1ccc(NC(=O)c2cccc(N(C)C)c2)cc1NC(=O)c1ccc(O)cc1 + OCCn1cc(-c2cnc3nnn(Cc4ccc5ncccc5c4)c3n2)cn1 [PF04217903] (first compound 2 µM, partner dose 1 µM)",115
11,"NC(=O)c1ccc(N(C(N)=O)c2c(F)cccc2F)nc1-c1ccc(F)cc1F + C=CCn1c(=O)c2cnc(Nc3ccc(N4CCN(C)CC4)cc3)nc2n1-c1cccc(C(C)(C)O)n1 [MK1775] (first compound 0.4 µM, partner dose 0.02 µM)",85.7
12,"CC(C)(C)c1cnc(CSc2cnc(NC(=O)C3CCNCC3)s2)o1 + CN(NC(=O)CC(=O)NN(C)C(=S)c1ccccc1)C(=S)c1ccccc1 [STA4783] (first compound 0.01 µM, partner dose 0.006 µM)",73.4
13,"Cc1ccc(NC(=O)c2cccc(N(C)C)c2)cc1NC(=O)c1ccc(O)cc1 + Cn1cncc1[C@@](N)(c1ccc(Cl)cc1)c1ccc2c(c1)c(-c1cccc(Cl)c1)cc(=O)n2C [tipifarnib] (first compound 2 µM, partner dose 0.01 µM)",109
14,"Cc1ccc(NC(=O)c2cccc(N(C)C)c2)cc1NC(=O)c1ccc(O)cc1 + NCC(=O)Nc1ccc(-n2nc(C(F)(F)F)cc2-c2ccc3c(ccc4ccccc43)c2)cc1 [OSU03012] (first compound 2 µM, partner dose 1 µM)",90.9
15,"CCCCCCCCc1ccc(CCC(N)(CO)CO)cc1 [fingolimod] + CN(NC(=O)CC(=O)NN(C)C(=S)c1ccccc1)C(=S)c1ccccc1 [STA4783] (first compound 2 µM, partner dose 0.006 µM)",71.1
16,"NC(=O)c1ccc(N(C(N)=O)c2c(F)cccc2F)nc1-c1ccc(F)cc1F + COc1cc2c(Oc3ccc4[nH]c(C)cc4c3F)ncnc2cc1OCCCN1CCCC1 [cediranib] (first compound 0.4 µM, partner dose 0.4 µM)",106
17,"NC(=O)c1ccc(N(C(N)=O)c2c(F)cccc2F)nc1-c1ccc(F)cc1F + O=C(Nc1cccc(Cl)c1)Nc1ncc(CCNc2ncnc3ccsc23)s1 [SNS314] (first compound 0.4 µM, partner dose 0.0008 µM)",102
18,"CC(C)(C)c1cnc(CSc2cnc(NC(=O)C3CCNCC3)s2)o1 + NC(=O)Nc1cc(-c2cccc(F)c2)sc1C(=O)N[C@H]1CCCNC1 [AZD7762] (first compound 0.01 µM, partner dose 0.02 µM)",99.8
19,"CN(NC(=O)CC(=O)NN(C)C(=S)c1ccccc1)C(=S)c1ccccc1 + COc1cc2c(Oc3ccc4[nH]c(C)cc4c3F)ncnc2cc1OCCCN1CCCC1 [cediranib] (first compound 0.006 µM, partner dose 0.4 µM)",69.7
20,"CCCCCCCCc1ccc(CCC(N)(CO)CO)cc1 [fingolimod] + C[C@@H]1CCN(C(=O)CC#N)C[C@@H]1N(C)c1ncnc2[nH]ccc12 [CP690550] (first compound 2 µM, partner dose 1 µM)",117
21,"CCCCCCCCc1ccc(CCC(N)(CO)CO)cc1 [fingolimod] + COc1cc2c(Oc3ccc4[nH]c(C)cc4c3F)ncnc2cc1OCCCN1CCCC1 [cediranib] (first compound 2 µM, partner dose 0.4 µM)",96.5
22,"CC(C)(C)c1cnc(CSc2cnc(NC(=O)C3CCNCC3)s2)o1 + NCC(=O)Nc1ccc(-n2nc(C(F)(F)F)cc2-c2ccc3c(ccc4ccccc43)c2)cc1 [OSU03012] (first compound 0.01 µM, partner dose 1 µM)",84.7
23,"CCCCCCCCc1ccc(CCC(N)(CO)CO)cc1 [fingolimod] + NCC(=O)Nc1ccc(-n2nc(C(F)(F)F)cc2-c2ccc3c(ccc4ccccc43)c2)cc1 [OSU03012] (first compound 2 µM, partner dose 1 µM)",64.7
24,"CCCCCCCCc1ccc(CCC(N)(CO)CO)cc1 [fingolimod] + NC(=O)Nc1cc(-c2cccc(F)c2)sc1C(=O)N[C@H]1CCCNC1 [AZD7762] (first compound 2 µM, partner dose 0.02 µM)",113
25,"CCCCCCCCc1ccc(CCC(N)(CO)CO)cc1 [fingolimod] + CO[C@@H]1[C@H](N(C)C(=O)c2ccccc2)C[C@H]2O[C@]1(C)n1c3ccccc3c3c4c(c5c6ccccc6n2c5c31)C(=O)NC4 [Midostaurin] (first compound 2 µM, partner dose 0.08 µM)",81.6
26,"Cc1ccc(NC(=O)c2cccc(N(C)C)c2)cc1NC(=O)c1ccc(O)cc1 + CN(C)S(=O)(=O)c1ccc2c(c1)/C(=C/c1cc3c([nH]1)CCCC3)C(=O)N2 [SU6656] (first compound 2 µM, partner dose 0.4 µM)",87.3
27,"NC(=O)c1ccc(N(C(N)=O)c2c(F)cccc2F)nc1-c1ccc(F)cc1F + OCCn1cc(-c2cnc3nnn(Cc4ccc5ncccc5c4)c3n2)cn1 [PF04217903] (first compound 0.4 µM, partner dose 1 µM)",108
28,"CC(C)(C)c1cnc(CSc2cnc(NC(=O)C3CCNCC3)s2)o1 + Cc1cc(N2CCOCC2)cc2[nH]c(-c3c(NC[C@@H](O)c4cccc(Cl)c4)cc[nH]c3=O)nc12 [BMS536924] (first compound 0.01 µM, partner dose 0.2 µM)",137
29,"NC(=O)c1ccc(N(C(N)=O)c2c(F)cccc2F)nc1-c1ccc(F)cc1F + NCC(=O)Nc1ccc(-n2nc(C(F)(F)F)cc2-c2ccc3c(ccc4ccccc43)c2)cc1 [OSU03012] (first compound 0.4 µM, partner dose 1 µM)",101
